Values joined by “and” are separate entries in the source; they are usually repeats but may differ in a detail not shown here. Equal entries are not always repeated.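 Assay format: 96-well plates, 48-hour exposure. The concentration for 50% growth inhibition is given as GI50. TGI: concentration producing complete growth inhibition.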 Bridge positions count the residues as written; N and C are the ends. Peptide text beside a SMILES is read from it. * marks the point of attachment. Cbz = O=C(OCc1ccccc1)*
Test system: NCI-H322M lung
Experiment: growth of human tumour cells (NCI), 48 h

Row | Compound | TGI | GI50
1 | CCn1c2ccc(O)c(C(=O)OC)c2c2cc3ccccc3c(O)c21 | 42.7 µM | 
2 | COc1ccc(-c2ccc(/C=N/n3c(COc4ccccc4Cl)n[nH]c3=S)o2)c([N+](=O)[O-])c1 | 56.8 µM | 21.5 µM
3 | Cc1oc2c(c1C(=O)N1CC[C@@H](N)C1)C(=O)c1c(c(O)c3ccccc3c1O)C2=O | 5.27 µM | 1.86 µM
4 | O=c1c(-c2ccccc2)coc2cc(OC/C(=N/O)c3ccc(F)cc3)ccc12 | 41 µM | 18.2 µM
5 | CC[C@H]1C=CCC[C@@]2(C[C@@H]3CC[C@@H]4[C@H](C(=O)OCCCCCCCCCCCCCCCC(=O)N(CCCN)CCCCN)[C@]5(CCC[C@@H](C)O5)NC(=[N+]34)N2)O1 | 1.82 µM | 
6 | COC(=O)/C=C/c1cc(OC)c2oc(-c3ccc(OC)c(OC)c3)c(C(=O)OC)c2c1 | > 100 µM | 
7 | Nc1ncccc1-c1nc2ccc(-c3ccccc3)nc2n1-c1ccc(C2(N)CCC2)cc1 | 11.2 µM | 1.87 µM
8 | O/N=C1/C2CC3CC1(c1ccccc1)CC(/C3=N/O)/C2=N\O (stereo unspecified) | > 100 µM | 
9 | O=S(=O)(NC1=NCCN1C(=S)SN1CCn2c1nsc2=S)c1cccc(OC(F)(F)F)c1 | 35.3 µM | 15.8 µM
10 | CCN(CC)CCCC(C)Nc1c(-c2ccccc2)cnc2cc(Cl)ccc12 (stereo unspecified) | 39.3 µM | 11.3 µM
11 | CCN(CC)C(=S)SSC(=S)N(CC)CC | 212 µM | 37.3 µM and 60 µM
12 | CCC(=O)NC(OCC1(CC)COC1)(C(F)(F)F)C(F)(F)F | > 100 µM | 
13 | CCN(C(=O)CN1CCN(c2cc3c(cc2F)c(=O)c(C(=O)O)cn3CC)CC1)c1nc(-c2ccccc2)cs1 | > 100 µM | 0.352 µM
14 | COc1ccc2c(c1)C(=O)c1c-2c(N2CCNCC2)nc2ccccc12 | 26.6 µM | 11.2 µM
15 | C=C1C(=O)O[C@H]2[C@H]1CC/C(CNC(=O)/C=C/c1ccccc1)=C\CC[C@@]1(C)O[C@@H]21 | 21.5 µM | 9.87 µM
16 | CCOC(=O)/C(C#N)=C(/NNc1ccccc1)c1ccncc1C(=O)O | > 100 µM | 
17 | OCc1ccc(N2CCCC2)cc1Cl | > 100 µM | 66.2 µM
18 | Cc1ccnc(NC(=S)Nc2cccc(Cl)c2)c1 | > 100 µM | 
19 | CN(C)Cc1cc(C(=O)/C=C/c2cccc(Cl)c2)cc(CN(C)C)c1O | 21.2 µM | 
20 | COc1cc(OC)cc(-n2c(N)c(-c3nc4ccccc4n3C)c3ccc([N+](=O)[O-])cc3c2=O)c1 | > 100 µM | 
21 | O=[N+]([O-])c1ccc2c(Nc3ccccc3-c3ccccc3Nc3c4ccccc4nc4cc([N+](=O)[O-])ccc34)c3ccccc3nc2c1 | 46.2 µM | 
22 | Cc1ccc(SC[C@@]2(C(F)F)NC(=O)NC2=O)cc1 | > 100 µM | 
23 | CCOP(=O)(OCC)C1(O)CC(n2cc(C)c(=O)[nH]c2=O)OC1CO (stereo unspecified) | > 100 µM | 
24 | Cc1cccc2c(Nc3ccc(NS(C)(=O)=O)cc3)c3ccc([N+](=O)[O-])cc3nc12 | 11.4 µM | 2.85 µM

Row | Compound | TGI | GI50
25 | Oc1c(Cl)cc(Cl)c2cccnc12 | 69.5 µM | 4.52 µM
26 | CCCCCCCCCCCCCP(=O)(NCC(N)=O)OCC (stereo unspecified) | 33.6 µM | 
27 | C=CC(C)(C)c1cc([C@@H]2COc3cc(O)ccc3C2=O)c(O)c(O)c1OC | > 100 µM | 
28 | CC/C=C\C/C=C/C=C1/C(=O)C=C[C@@H]1C/C=C\CCCC(=O)OC | 12.6 µM | 3.27 µM
29 | O=C(COc1ccc(Cl)cc1)N1CCN(C(=O)COc2ccc(Cl)cc2)c2ccccc21 | > 100 µM | 
30 | C[C@@H]1CC[C@@H](C)[C@](C)(CCc2ccoc2)C/C=C\C=C/1C(=O)O | > 50 µM | 
31 | O=C(CCc1nc(=S)[nH][nH]1)Nc1cccc(C(F)(F)F)c1 | > 100 µM | 
32 | Oc1ccc(Cl)cc1C1=N/C(=N\C/N=C2\N=C(c3cc(Cl)ccc3O)CC(c3ccccc3)N2)NC(c2ccccc2)C1 (stereo unspecified) | > 100 µM | 
33 | Cc1cc(C)c2c(=N)c3ccccc3n(CCCCCCO)c2n1 | 28.4 µM | 
34 | NC(=O)C12CC3CC(CC(Br)(C3)C1)C2 | > 100 µM | 
35 | CCN1C(=O)N(CC)C2C1NN=c1s/c(=C\c3ccc[nH]3)c(=O)n12 (stereo unspecified) | > 100 µM | 0.815 µM
36 | CC1=C(Cl)C[C@@H](/C(C)=C\Cl)O[C@@]1(O)C(Br)Br | > 100 µM | 
37 | COC(=O)C1=C(C)N(NC(=O)c2ccccc2)C2(O)CCCC(=O)C12C (stereo unspecified) | > 100 µM | 
38 | CC(=O)c1ccc(N2CCN(C3=CC(=O)c4c(O)ccc(O)c4C3=O)CC2)cc1 | > 100 µM | 
39 | COc1ccc2c(c1OC)C(=O)O[C@@H]2[C@H]1c2cc3c(cc2CCN1C)OCO3 | > 100 µM | 
40 | C/C=C/[C@H]1O[C@@](O)([C@@H](C)[C@H](O)[C@H](C)[C@H]2OC(=O)/C(OC)=C/C(C)=C/[C@@H](C)[C@@H](O)[C@@H](CC)[C@@H](O)[C@H](C)C/C(C)=C/C=C/[C@@H]2OC)C[C@H](OC2CC(O)C(OC(N)=O)C(C)O2)[C@@H]1C (stereo partly specified) | 21.5 µM | 
41 | CC(=O)O[C@H]1CN(S(=O)(=O)c2ccc(C)cc2)C[C@@H]1C1CCCCC1 | > 100 µM | 
42 | COc1cccc(C2C(C#N)=C(N)Oc3c2ccc2ccccc32)c1 (stereo unspecified) | 20.3 µM | 0.0508 µM
43 | CN1CCN(c2cc3nc4ccccc4n(-c4ccc(Cl)cc4)c-3cc2=N)CC1 | 52.5 µM | 19.7 µM
44 | Clc1nc(Nc2nc3ccccc3[nH]2)nc(Cl)c1Cc1ccccc1 | > 100 µM | 
45 | OC(CCN1CCN(CCOC(c2ccccc2)c2ccccc2)CC1)c1ccc(Br)cc1 (stereo unspecified) | 27.5 µM | 
46 | O=C(Nc1ccccc1Cl)c1cccc(NC2=C(Cl)C(=O)N(Cc3ccccc3)C2=O)c1 | > 100 µM | 16.9 µM
47 | C#C[C@H]1CCCCCC1O (stereo partly specified) | > 100 µM | 
48 | Cc1ccc(OCC2OC(n3cnc4c(Cl)ncnc43)CC2Oc2ccc(C)cc2)cc1 (stereo unspecified) | 6.4 µM and 33.3 µM | 2.56 µM and 16 µM

Row | Compound | TGI | GI50
49 | Nc1cc2cccc[n+]2c2cccc(Cl)c12 |  | 27.3 µM
50 | N#CC(C#N)=C(N)/C(C#N)=C/c1ccc2[nH]ccc2c1 | > 100 µM | 
51 | COP(=O)(OC)C(NC=O)P(=O)(OC)OC | > 100 µM | 
52 | N=C(N)SCCCN | > 74.9 µM | 
53 | COc1nc(OC)nc(-c2cccc(F)c2)n1 | 35.7 µM | 
54 | CCOC(=O)C(NC(=O)CC)(Nc1ccc(S(=O)(=O)Nc2nc(C)cc(C)n2)cc1)C(F)(F)F (stereo unspecified) | > 100 µM | 
55 | CC(C)C(C/C=C1/CC(CO)(COC(=O)C2CCCCC2)OC1=O)C(C)C (stereo unspecified) | 35.4 µM | 
56 | COc1ccc(-c2onc(-c3c(C)cc(C)cc3C)c2C2=NCCN2)cc1 | > 100 µM | 
57 | COc1cc(C2CC(=O)Nc3c2cc(Br)c2ccccc32)cc(Br)c1OC (stereo unspecified) | > 100 µM | 3.56 µM
58 | NNc1c2ccccc2nc2ccccc12 | 36.5 µM | 7.32 µM
59 | O=c1[nH]c2cc3cccnc3c(Cl)c2nc1CBr | 51.5 µM | 
60 | CC(C)(C)c1cc(C(=O)/C=C/c2ccn[nH]2)cc(C(C)(C)C)c1O | 31.1 µM | 
61 | CC1(C)CCCCCCCCCC(C)(CCCCCCCCCCCCO)C1=O (stereo unspecified) | 33.1 µM | 
62 | COC(=O)C1CCCCNC(=O)CCC(NC(=O)OCc2ccccc2)C(=O)N1 (stereo not drawn) (Cbz-Glu-Lys-OMe; lactam 1-2; configuration not given here) | > 100 µM | 
63 | c1csc(-c2csc(-c3ccsc3)c2)c1 | > 100 µM | 
64 | Cc1cc(O)ccc1C1(c2ccc(F)cc2)OC(=O)c2ccccc21 (stereo unspecified) | 7.39 µM | 
65 | O=S1(=O)C(c2ccccc2)=C(O)c2ccccc21 | > 100 µM | 
66 | Cn1nnc2c(C(N)=O)ncn2c1=O | > 100 µM | 
67 | Cc1ccc(N=C2SC(c3ccc(C)cc3)(c3ccc(C)cc3)c3ccccc32)cc1 | > 100 µM | 
68 | COC(=O)C#CCC1CCCC1C1SCCS1 (stereo unspecified) | > 100 µM | 
69 | C/C(=C\Cc1cc(O)ccc1O)CCc1c(C)c(O)c(O)c(C=O)c1C | > 100 µM | 
70 | COc1cc2c(cc1-c1coc3cc(OCC=C(C)C)ccc3c1=O)OCO2 | > 100 µM | 
